Source: the RNAGym collection of RNA variant scans (doi:10.1093/nar/gkz1192)
Read counts are not given, so values of variants with three or more changes are uncertain.

B1: CPEB3 Ribozyme (parent)
chain: UAACAGGGGGCCACAGCAGAAGCGUUCACGUCGCAGCCCCUGUCAGAUUCUGGUGAAUCUGCGAAUUCUGCUGUAUAUCUC

Variants of: B1
Experiment: self-cleavage, relative activity (ratio to wild type); higher = more cleavage; in vitro, sequencing
Outline: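 Libraries of CPEB3 self-cleaving ribozyme mutants came from rounds of error-prone PCR and carried barcodes, which DNA sequencing matched to variants. In vitro transcription used T7 RNA polymerase at 37°C for 5 hours, with a further 15 min in DNase I before EDTA stopped the reaction; the ribozymes cleaved during both steps. The RNA was reverse transcribed with template switching and sequenced on Illumina. Relative activity is the cleaved/total read fraction of a variant divided by that of the unmutated ribozyme, averaged over three batches with at least 5 reads.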

Variant | self-cleavage
UAACAGGGGGCCACAGCAGAAGCGUUCUCGUCGCAGCCCCUGUCAGAUUCUGGUGAAUCUGCGUAUUACGCUGUGUAUCUC | 0.14
UAACAGGGGGCCACAGCAGAAGCGUUCUCGACGCAGCCCCUGUCAAAUUCUGGUGAAUCUGCGAAUUCCGCUGUAUAUCUC | 0.1
UAACAGGGGGCCACAGCAGAAGCGUUCUCGUCGCAGUCCCUGCCAGAUUCUGGUGAAUCUGCGAAUUCUGCUGUAUAUCUC | 0.11
UAACAGGGGGCCACAGCAGAAGCGUUCGCGUCGCAGCCCCUGUCAGAUUCUGGUGAAUCUGCGAACGCUGCUGUAUAUCUC | 0.18
UAACAGGGGGCCACAGCAGAAGCGUUCGCGUCGCAGCCCCUGUCAGAUCCUGGCGAAUCUGCGAAUUCUGCUGUAUAUCUC | 0.15
UAACAGGGGGCCACAGCAGAAGCGUUCGCGUCGCAGCCCCUGUCAGAAUCUGGUGAAACUGCGAACUCUGCUGUAUAUCUC | 0.1
UAACAGGGGGCCACAGCAGAAGCGUUCUCGUCGCAGCCCAUGUCAGAUUCCGGUGAAUUCGCGAAUUCUGCUGAAUAUCUC | 0.02
UAACAGGGGGCCACAGCAGAAGCGUUCGCGUCGCAGCCCCUGUCAGAUUCUGGUGAAUCCGCGAAUCCUACUGUAUAUCUC | 0.16
UAACAGGGGGCCACAGCAGAAGCGUUCUCGUCGCAGCUCCUGUCAGGUCCUGGUGAACCUGCGAACUCUGCUGUAUAUCUC | 0.09
UAACAGGGGGCCACAGCAGAAGCGUUCUCGUCGCAGCCCCUGUCAAAUUCUGGUGAAUCUGCGAAUUCCGCUGUAUAUCUC | 0.14
UAACAGGGGGCCACAGCAGAAGCGUUCUCGACGCAGCCCCUGACAGACUCUGGUGAGUCUGCGAAUUCUGCUGUAUAUCUC | 0.24
UAACAGGGGGCCACAGCAGAAGCGUUCGCGUCGCAGCCCCUGUCAGAUCCUGGUGAAUCAGCGAAUUCAGCUGCAUAUCUC | 0.07
UAACAGGGGGCCACAGCAGAAGCGUUCUCGUCACAGCCCCUGUCAGAUUCUGGAGAAUCUGCGAAUUCUGCUGUGUAUCUC | 0.05
UAACAGGGGGCCACAGCAGAAGCGUUCGCGUCGCAGCCCCUGUCAGAUUCUGGCGAAUCUGCGGAGUCUGCUGUAUAUGUC | 0.11
UAACAGGGGGCCACAGCAGAAGCGUUCGCGUCGCAGCCCCUGUCAGAUUCUGGUGAAUCUGCGAACUCUGCAGUAUAACUC | 0.15
UAACAGGGGGCCACAGCAGAAGCGUUCUCGUCGCUGCCCCUGUCAGAUUCUGGUGAAUCUGCGAAUUCAGCUGUAUAUCAC | 0.18
UAACAGGGGGCCACAGCAGAAGCGUUCGCGUCGCAGCCCCUGUCAGAUUCUGGUGAAUCUGCGAAUGCCGCCGUAUAUCUC | 0.2
UAACAGGGGGCCACAGCAGAAGCGUUCUCGUCGCAGCCCCUGUCAAACUCUGGUGAAUCUGCGAAUUCUGCUGUAUAUCUC | 0.44
UAACAGGGGGCCACAGCAGAAGCGUUCGCGUCGCAGCCCCUGUCAGAUUCCGGUGAGUCUGCGAAUUCUGCUGUAUAUCUC | 0.54
UAACAGGGGGCCACAGCAGAAGCGUUCGCGUCGCAGCCCCUGUCAGAUUCUGGUGAAUCAGCGAAUUCUGCUGUAUGUCUC | 0.19
UAACAGGGGGCCACAGCAGAAGCGUUCUCGUCGCAGCCCCUGUCAGAUUCUGGUGAAUCUGCGGAUUCUGCUGUAUAUUUC | 0.75
UAACAGGGGGCCACAGCAGAAGCGUUCUCGUGGCAGCCCCUGUCAGAUUCUGGUGAAUCUGCGGAUUCCGCUGUAUCUCUC | 0.04
UAACAGGGGGCCACAGCAGAAGCGUUCGCGUCGCAGCCCCUGUCAGAUUCUGGUGAAUCUGCGAACUCUGCCGUAUAUCUC | 0.18

Variant | self-cleavage
UAACAGGGGGCCACAGCAGAAGCGUUCUCGUCGCAGCCCCUGUCAGGUUCUGGUGAAUCUGCUAAUUCUGCUGUAUAUCUC | 0.78
UAACAGGGGGCCACAGCAGAAGCGUUCUCGUCGCAGCCCGUGUCAGAUUCUGGUGAAUCUGCGAAUUCUGCUGUACAUCCC | 0.11
UAACAGGGGGCCACAGCAGAAGCGUUCGCGUCGCAGCCCCUGUCAGAUUCCGGUGGAUCUGCGAAUUCUGCUGUAUAACUC | 0.33
UAACAGGGGGCCACAGCAGAAGCGUUCGCGUCGCAGCCCCUGUCAGAUUCUGGUGAAUCUGCGAAUUCUGCUGUACGUCUC | 0.56
UAACAGGGGGCCACAGCAGAAGCGUUCGCGUCGCAGCCCCUGUCAGAUUCUGGAGUAUCUGCGAAUUCUGCUGUAUAUCUC | 0.15
UAACAGGGGGCCACAGCAGAAGCGUUCGCGUCGCAGCCCCUGUCAGAUACUGGUGGAUCUGCGAAUUCUGCUGUAUAUCAC | 0.29
UAACAGGGGGCCACAGCAGAAGCGUUCUCGCCGCAGCCCCUGUCAGAUUCUGGUGUAUCUGCGAAUUCUGCUGUAUACCUC | 0.19
UAACAGGGGGCCACAGCAGAAGCGUUCGCGUCGCAGCCCCUGUCAGAUUCUGGUGAAUCUGCGAACUCCGCUGUAUAUCUC | 0.48
UAACAGGGGGCCACAGCAGAAGCGUUCGCGUCGCAGCCCCUGUCAGAUCCUGGUGAAUCUGCGAACUCUGCUGCAUAUCUC | 0.11
UAACAGGGGGCCACAGCAGAAGCGUUCUCGUCUCAGCCCCUGUCAGAUUCUGGUGAAUCUGCGUAUUCUGCUGUAUAUCUC | 0.21
UAACAGGGGGCCACAGCAGAAGCGUUCGCGUCGCAGCCCCUGUCAGAUUCUGGUGAAUCUGCGAAUCCUGCUGCAUAUCUC | 0.25
UAACAGGGGGCCACAGCAGAAGCGUUCGCGUCGCAGCCCCUGUCAGAUUCUGGCGAAUCCGCGAAUUCUGCUGUAUAUCUC | 0.16
UAACAGGGGGCCACAGCAGAAGCGUUCUCGUCGCAGCCCCUGUCAGAUUCUGGUGAAUCUGCCAAUUCUGCUGUAUAUCCC | 0.83
UAACAGGGGGCCACAGCAGAAGCGUUCGCGUCGCAGCCCCUGUCAGAUUCCCGUGAAUCUGUGAAUUCUGCUGUAUAUCUC | 0.25
UAACAGGGGGCCACAGCAGAAGCGUUCUCGUCGCUGCCCCUGUCAGAUUCUGGUGAAUCUGCGAUUUCUGCUGUACAUCCC | 0.07
UAACAGGGGGCCACAGCAGAAGCGUUCGCGUCGCAGCCCCUGUCAGACUCUGGGGAAUCUGCGAAUUCUGCUGUAUAUCUC | 0.14
UAACAGGGGGCCACAGCAGAAGCGUUCGCGUCGCAGCCCCUGUCAGAUUCUGGUGAAUCUGCGAACUCUGCUGGGUAUCUC | 0.13
UAACAGGGGGCCACAGCAGAAGCGUUCGCGUCGCAGCCCCUGUCAGAUACUGGCCAAUCUGCGAAUUCUGCGGUAUAUCUC | 0.19
UAACAGGGGGCCACAGCAGAAGCGUUCGCGUCGCAGCCCCUGUCAGAUUCUGGUGAAUCUGCGAAUCCUGCUGUAUAUCAC | 0.11
UAACAGGGGGCCACAGCAGAAGCGUUCGCGUCGCAGCCCCUGUCAGAUUCUGGUGAAUCUGCGAAUUCAGCUCUUUAUCUC | 0.33
UAACAGGGGGCCACAGCAGAAGCGUUCUCGUCGCAGCCCCUGUCGGAUUCCGGUGAAUAUGCGAAUUCUGCUGUAUAUCUC | 0.23
UAACAGGGGGCCACAGCAGAAGCGUUCGCGUCGCAGCCCCUGUCAGAUUCUGGUGAAUCUGCGAAUUCUGCUGAAUAUCCC | 1.19
UAACAGGGGGCCACAGCAGAAGCGUUCUCGCCGCAGCGCCUGUCAGAUUCUGGUGAAUCUGCGAAUUCUGCUGUAUAUCUC | 0.11

Variant | self-cleavage
UAACAGGGGGCCACAGCAGAAGCGUUCUCGUCUCAGCCCCUGUCAGAUUCUGGUGAAUCUGCGAAUUCUGCUGCAUAUCUC | 0.13
UAACAGGGGGCCACAGCAGAAGCGUUCGCGUCGCAGCCCCUGUCAGAUUCCGGUGAACUUGCGAAUUCUGCUGUAUAUCUC | 0.2
UAACAGGGGGCCACAGCAGAAGCGUUCUCGUCGCAGCCCCUGUCAGAUUCUGGUGAAUCUGCGUGUUCUGCUGUAUAUCUC | 0.2
UAACAGGGGGCCACAGCAGAAGCGUUCGCGUCGCAGCCCCUGUCAGAUUCCGGUGAAUCUGCGAAUCCUGCUGUAUAUCUC | 0.16
UAACAGGGGGCCACAGCAGAAGCGUUCUCGUCGCAAUCCCUGUCAGAUUCUGGUGGAUCUGCGAAUUCUGCUGUAUAUCUC | 0.13
UAACAGGGGGCCACAGCAGAAGCGUUCGCGUCGCAGCCCCUGUCAGAUCCUGGUGAAUCUGCGAAUUCUGCUGUAUAUCAC | 0.51
UAACAGGGGGCCACAGCAGAAGCGUUCUCGUCGCAGCCCAUGUCAGGUUCCGGUGAAUCUGCGGACUCUGCUGUAUAACUC | 0.06
UAACAGGGGGCCACAGCAGAAGCGUUCUCGUCGCGGCCCCUGUCAGAUUCUGGAGAAUCUGCGAAUUCUGCAGUAUAUCUC | 1.16
UAACAGGGGGCCACAGCAGAAGCGUUCGCGUCGCAGCCCCUGUCAGACUCCGGUGUAUCUGCGGAUUCUGCUGUAUAUCUC | 0.2
UAACAGGGGGCCACAGCAGAAGCGUUCUCGUCGCAGCCCCUGUCAGAUUCUGGUGGUUCUGCGAAUUCUGCUGUAUGUCUC | 0.17
UAACAGGGGGCCACAGCAGAAGCGUUCUCUUCGCAGCCCCUGUCAGAUCCUGGUGAAUCAGCGAAUUCUCCUGAAUAUCUC | 0.1
UAACAGGGGGCCACAGCAGAAGCGUUCUCGUCGCAGCCCCUGUCUGAUUCUGGUGAAUCUGCGAAUUCUGCUGUAUAUUUC | 0.38
UAACAGGGGGCCACAGCAGAAGCGUUCUCGUCCCGGCCCCUGUCAGAUUCUGGUGAAUCUGCGAAUUCUGCUGUAUAUCUC | 0.2
UAACAGGGGGCCACAGCAGAAGCGUUCGCGUCGCAGCCCCUGUCAGAUUCUGGUGAAUCUGCGAAGUCUACUGUAUACCUC | 0.14
UAACAGGGGGCCACAGCAGAAGCGUUCUCGUCGCAGCCCCUGUCUGUUUCUGGCGAAUCUGCGAAUUCUGCUGUACACCUC | 0.13
UAACAGGGGGCCACAGCAGAAGCGUUCUCGUCGCAGCCCCUGUCAGAUUCUGAUGUAUCUGCGAAUUCUGCUGUAUAUCCC | 0.4
UAACAGGGGGCCACAGCAGAAGCGUUCUCGUCGCGGCCCCUGUCAGAUUCUGUUGGACCUGCGAAUUCAGCUGUAUAUCUC | 0.43
UAACAGGGGGCCACAGCAGAAGCGUUCGCGUCGCAGCCCCUGUCAGACUCCGGUGAAUCAGCAAAUUCUGCUGUAUAUCUC | 0.12
UAACAGGGGGCCACAGCAGAAGCGUUCGCGUCGCAGCCCCUGUCAGAUUCUGGUGAAUCUGCGAACUCUGCCGUACGUCUC | 0.21
UAACAGGGGGCCACAGCAGAAGCGUUCGCGUCGCAGCCCCUGUCAGAUUCUGGUGAAUCUGCGAAUUCUGCUGCAUAACUC | 0.94
UAACAGGGGGCCACAGCAGAAGCGUUCGCGUCGCAGCCCCUGUCAGAUUCAGAUGAAUCUGCGAAUUCUGCUGUAUAUCUC | 0.75
UAACAGGGGGCCACAGCAGAAGCGUUCGCGUCGCAGCCCCUGUCAGAUUCUGGUGAAUCUGCGAAAUCUGCUGUUUAUCUC | 0.32
